{
  "source": "the BET-seq Pho4 binding data (Le et al. 2018)",
  "note": "Some of the results follow. Values were computed here from the reads of four pooled replicates and scatter widely.",
  "data": [
    {"biological_target": "T1, Pho4 (S. cerevisiae) (UniProt P07270)", "T1 sequence": "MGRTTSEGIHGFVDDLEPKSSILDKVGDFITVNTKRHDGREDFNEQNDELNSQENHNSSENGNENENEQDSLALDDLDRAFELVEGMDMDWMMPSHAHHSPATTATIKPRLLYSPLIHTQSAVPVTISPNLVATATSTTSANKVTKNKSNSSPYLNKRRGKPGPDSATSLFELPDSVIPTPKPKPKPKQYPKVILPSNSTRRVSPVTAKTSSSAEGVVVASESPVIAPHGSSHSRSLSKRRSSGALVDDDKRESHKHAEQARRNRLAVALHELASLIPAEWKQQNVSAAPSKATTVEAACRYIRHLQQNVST", "assay": "relative binding free energy (BET-seq); higher = weaker binding", "conditions": "reference: library average", "units": {"relative binding free energy": "kcal/mol"}, "values": [
      {"sequence": "TTGCTCACGTGGTCGG", "relative binding free energy": 0.09},
      {"sequence": "AGGTACACGTGGTTAC", "relative binding free energy": 0.06},
      {"sequence": "CTGGGCACGTGTTTGC", "relative binding free energy": -0.04},
      {"sequence": "TTGGGCACGTGATTTG", "relative binding free energy": 0.06},
      {"sequence": "ACGGGCACGTGGGTGA", "relative binding free energy": -0.15},
      {"sequence": "TGTCTCACGTGGCTTG", "relative binding free energy": 0.05},
      {"sequence": "GGTTACACGTGTTTAC", "relative binding free energy": 0.15},
      {"sequence": "TTGATCACGTGCTGGT", "relative binding free energy": 0.06},
      {"sequence": "GTATACACGTGTGAGG", "relative binding free energy": 0.03},
      {"sequence": "TGGTTCACGTGCCGGT", "relative binding free energy": 0.24},
      {"sequence": "ATAATCACGTGCTATT", "relative binding free energy": 0.07},
      {"sequence": "AGGCGCACGTGCTGGG", "relative binding free energy": -0.17},
      {"sequence": "GTGTTCACGTGAATGT", "relative binding free energy": 0.4},
      {"sequence": "TCGGTCACGTGGTCTA", "relative binding free energy": 0.05},
      {"sequence": "ATTTACACGTGGTGCT", "relative binding free energy": -0.02},
      {"sequence": "GGTTTCACGTGGGGGT", "relative binding free energy": 0.25},
      {"sequence": "CTAGGCACGTGGTATG", "relative binding free energy": -0.24},
      {"sequence": "AGAGTCACGTGTTTTT", "relative binding free energy": 0.22},
      {"sequence": "TGAGTCACGTGCGTTC", "relative binding free energy": 0.22},
      {"sequence": "TAGAACACGTGGTGTG", "relative binding free energy": -0.04},
      {"sequence": "AAAGACACGTGGGTCG", "relative binding free energy": -0.16},
      {"sequence": "TGCGACACGTGGCGTG", "relative binding free energy": -0.19},
      {"sequence": "GTGATCACGTGGGGTA", "relative binding free energy": 0.02},
      {"sequence": "GAGGGCACGTGTATGT", "relative binding free energy": -0.01},
      {"sequence": "CTGGGCACGTGGGCTT", "relative binding free energy": -0.15},
      {"sequence": "GTTGGCACGTGGATGA", "relative binding free energy": -0.16},
      {"sequence": "AAGATCACGTGGTTAT", "relative binding free energy": 0.1},
      {"sequence": "TTAAACACGTGGGGGA", "relative binding free energy": -0.02},
      {"sequence": "TGTAGCACGTGGCTGG", "relative binding free energy": -0.25},
      {"sequence": "GGGCGCACGTGGGGAT", "relative binding free energy": -0.12},
      {"sequence": "TTGCACACGTGATGGG", "relative binding free energy": 0.2},
      {"sequence": "AGGCGCACGTGATATT", "relative binding free energy": 0.17},
      {"sequence": "TTGAGCACGTGACTGT", "relative binding free energy": -0.02},
      {"sequence": "GGAGACACGTGGGGGC", "relative binding free energy": -0.03},
      {"sequence": "TGTACCACGTGTTTAT", "relative binding free energy": -0.05},
      {"sequence": "AGTGGCACGTGAAGAA", "relative binding free energy": 0.19},
      {"sequence": "TAGTGCACGTGTCGGA", "relative binding free energy": 0.1},
      {"sequence": "ATTTTCACGTGGATGT", "relative binding free energy": 0.27},
      {"sequence": "TTTGACACGTGGCATT", "relative binding free energy": -0.02},
      {"sequence": "AGGTCCACGTGGGCGA", "relative binding free energy": -0.15},
      {"sequence": "GAATGCACGTGTGGTC", "relative binding free energy": 0.13},
      {"sequence": "TCAATCACGTGTTTGG", "relative binding free energy": 0.05},
      {"sequence": "TAGAGCACGTGGGTTA", "relative binding free energy": -0.23},
      {"sequence": "AGTCGCACGTGGGTAG", "relative binding free energy": -0.13},
      {"sequence": "ATTTGCACGTGGTGAA", "relative binding free energy": 0.05},
      {"sequence": "TTAGGCACGTGATTGC", "relative binding free energy": -0.2},
      {"sequence": "TTCGACACGTGGGATT", "relative binding free energy": 0.11},
      {"sequence": "AAGTGCACGTGGCGTG", "relative binding free energy": -0.03},
      {"sequence": "TTTCCCACGTGGGGGG", "relative binding free energy": -0.16},
      {"sequence": "GTAGCCACGTGTGGTG", "relative binding free energy": 0.02},
      {"sequence": "TTATCCACGTGGAGTT", "relative binding free energy": 0.01},
      {"sequence": "TGGGGCACGTGAACAT", "relative binding free energy": 0.07},
      {"sequence": "GTTAGCACGTGTTAGC", "relative binding free energy": -0.07},
      {"sequence": "GTCTGCACGTGATTGA", "relative binding free energy": 0.22},
      {"sequence": "TCTAACACGTGGGGGT", "relative binding free energy": -0.21},
      {"sequence": "TATGACACGTGTATAT", "relative binding free energy": 0.13},
      {"sequence": "ATTTCCACGTGTTAGT", "relative binding free energy": 0.02},
      {"sequence": "GTAACCACGTGTGGGG", "relative binding free energy": -0.04},
      {"sequence": "CGGGGCACGTGCGGTG", "relative binding free energy": -0.2},
      {"sequence": "GGGTGCACGTGAAGGA", "relative binding free energy": 0.27},
      {"sequence": "AATTTCACGTGGGGCA", "relative binding free energy": 0.17},
      {"sequence": "TTGATCACGTGAGTTA", "relative binding free energy": 0.32},
      {"sequence": "CATTTCACGTGAATTT", "relative binding free energy": 0.34}
    ]}
  ]
}
